Experimental data from PubChem BioAssay AID1508624 (National Center for Advancing Translational Sciences (NCATS), 2021).
Screen size: about 48,000 compounds; about 120 (0.25%) were called active. Inconclusive results (about 4%) are left out. Calls come from the whole dose curve; as a rule, active = well fitted activation curve with a large enough effect; inconclusive = small, poorly fitted or top-dose-only effect, or another doubt; inactive = no such curve, though single readings can be large or run the other way. Some of the results follow.

assay: Primary qHTS for Identification of Small Molecule Activators of Huntingtin-Antisense Promoter Activity; details: HEK293 HTT-AS promoter firefly luciferase reporter, 24 h; series mostly up to 57.5 µM; activity change, positive = activation: at the top concentration; note: nearly all actives have a fitted effect of over 55% in size
Method in brief: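 HEK293 luciferase promoter-reporter cells (2,500/well) plated 24 h, then compounds added at up to 57.5 uM final for 24 h at 37 °C. Firefly luminescence by Dual-Glo, normalized to vehicle (0%) and zero RLU (-100%).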

Activity change, positive = activation, inactive:
CCOc1ccc(CNC(=O)C2CCN(C3=NS(=O)(=O)C(c4ccc(C)cc4)=C3CC)CC2)cc1 -41%
COc1ccc(C2CC(=O)c3cc(-c4nc(-c5ccc(Cl)cc5)cs4)c(=O)[nH]c3C2)cc1 (configuration not stated) -4.4%
Cc1ccc(C(=O)Nc2ccc(-n3c(C)nc4ccccc4c3=O)cc2)cc1[N+](=O)[O-] -27.3%
CCN(C(=O)CCS(=O)(=O)c1cccc2nsnc12)c1cccc(C)c1 -14.2%
CCOC(=O)c1ccc(N2C(=O)c3n[nH]c(-c4cccs4)c3C2c2ccc(O)c(OC)c2)cc1 (configuration not stated) -64.6%
O=C(Nc1nc2n(n1)C(c1ccc(F)cc1)C=C(c1ccc(Cl)cc1)N2)c1ccco1 (configuration not stated) -23.1%
CCOc1ccc2oc(=O)cc(CN3CCN(c4ccc(OC)cc4)CC3)c2c1 -27.1%
CCN(C(=O)c1cc2c(s1)-c1c(C)cccc1OC2)c1cc(C)ccc1C -18.3%
COc1ccc(OC)c(NC(=O)Cn2c(=O)oc3cc(S(=O)(=O)NCc4ccccc4)ccc32)c1 -17.1%
O=C(NCC12CC3CC(CC(C3)C1)C2)c1cc2nc(-c3ccc(Cl)cc3)cc(C(F)(F)F)n2n1 -14.2%
Cc1cc2oc(C(=O)N(Cc3ccccc3)C3CCS(=O)(=O)C3)cc(=O)c2cc1C (configuration not stated) 11.6%
CCOc1ccc(S(=O)(=O)n2nc(C)c(S(=O)(=O)N3CCCCCC3)c2C)cc1 -12.3%
CN1CCN(c2ncc3c(n2)CCN(Cc2ccccc2Cl)C3)CC1 -13.2%
Cc1ccccc1C(=O)Nc1ccccc1C(=O)OCc1cc(=O)n2nc(C3CC3)sc2n1 10.3%
Cc1ccc(NC(=O)CN2C(=O)C(c3ccccc3)=NC2(C)C)cc1C -4.15%
CCc1ccc(-n2c(=O)c3cccnc3n2CC(=O)N(CC)c2cccc(C)c2)cc1 -20.7%
COc1cccc(C(=O)Nc2ccc3c(c2)CCCN3C(=O)c2cccs2)c1OC 0%
Cc1ccc(S(=O)(=O)OCC(=O)Nc2ccc(C(=O)O)c(O)c2)cc1 -12.2%
Cc1cc(-c2nc3ncccc3o2)ccc1NC(=O)COc1ccc(C(C)(C)C)cc1 17.2%
Cc1[nH]c(C)c(Cl)c(=O)c1Cl -6.95% [at 25.1 µM, percent change from vehicle, -100% = no light]
Cc1c2cnn(-c3ccccc3)c(=O)c2c(C)n1CC(=O)NCc1ccc(Cl)cc1 -13.1%
CCOc1ccc(Nc2c(S(=O)(=O)c3ccc(C)cc3)cnc3ccccc23)cc1 -35.9%
CCc1ccc(NC(=O)CSc2nnc(-c3nonc3NC(C)=O)n2-c2ccccc2)cc1 -29.2%
CC1(C)O[C@@H]2C[C@H]3[C@@H]4C[C@H](F)C5=CC(=O)CC[C@]5(C)[C@H]4[C@@H](O)C[C@]3(C)[C@]2(C(=O)CO)O1 -4.55%
COc1cccc(Cn2c(SCc3ccc(C(=O)N4CCC(C)CC4)cc3)nc3ccncc32)c1 -29.8%
CCC(Cc1ccccc1)NC(=O)c1csc2c1CCCCC2 (configuration not stated) -12.5%
COc1cc(NC(=O)CCCSc2nc(-c3ccco3)cc(C(F)(F)F)n2)cc(OC)c1OC -31.2%
C[C@H]1C[C@H]2[C@@H]3CCC4=CC(=O)C=C[C@]4(C)[C@H]3C(=O)C[C@]2(C)[C@@]1(O)C(=O)CO 29.3%
COc1ccc2oc(-c3ccc(C)c(NC(=O)c4ccc(N5CCCCC5)c([N+](=O)[O-])c4)c3)nc2c1 -3.67%
CC(C)(C)OC(=O)N1CCC(c2c(C(=O)NCCN3CCOCC3)cnn2-c2ccccc2)CC1 -35.5%
COc1ccccc1NC(=O)C1=C(C)Nc2ncnn2C1c1ccc[nH]1 (configuration not stated) -14.2%
CCN(CC)C(=O)Cn1c(SCC(=O)Nc2ccc(C)c(C)c2)nc2ccccc21 -16.1%
COc1ccc(CNC(=O)CN2CCSc3ccccc32)c(OC)c1 -8.44%
CCN(c1ccccc1)S(=O)(=O)c1cc(C(=O)Nc2ccc(Br)cc2)ccc1F -42.5%
CCOC(=O)c1c(Nc2ccccc2)nnc(-c2ccccc2)c1-c1ccccc1 -21.2%
O=C(Cn1c(=O)oc2ccccc21)NCc1ccc(Cl)cc1 -3.89%
CCCCNC(=O)c1ccc(-c2nc(CS(=O)(=O)c3ccc(C)cc3)c(C)o2)cc1 -15.6%
Cc1ccc(N2CC(c3nnc(Cc4ccc(F)cc4Cl)o3)CC2=O)cc1 (configuration not stated) -5.95%
CC1=C(c2ccc(Cl)cc2)S(=O)(=O)N=C1N1CCN(c2cccc(C)c2)C(C)C1 (configuration not stated) -22.6%
CNC(=O)c1ccc(NC(=O)c2nsc3ccccc23)cc1 -59.6%
CCOC(=O)c1ccc(NC(=O)Cn2nnc(-c3ccc(C(F)(F)F)cc3)n2)cc1 -7.79%
COc1ccc2c(c1)c(N1CCCC1=O)c(C(=O)Nc1ccc(Cl)cc1C)n2C -11.6%
CCN1Cc2cccc(C(=O)Nc3ccc(F)cc3)c2C1=O -17.9%
CCOC(=O)c1ccc(OCC2c3cc(OC)c(OC)cc3CCN2C(=O)Cc2ccc(OC)c(OC)c2)cc1 (configuration not stated) -17.1%
COC(=O)c1c(NC(=O)c2ccc(S(=O)(=O)N3CCCCC3)cc2)sc2c1CCN(C)C2 -10.8%
C[C@@H]1C[C@H]2[C@@H]3CCC4=CC(=O)C=C[C@]4(C)[C@@]3(F)[C@@H](O)C[C@]2(C)[C@@]1(O)C(=O)COC(=O)c1ccncc1 -14.2%
COc1ccc(CCNC(=O)CCCn2c(=O)c3ccccc3n(CC(=O)Nc3c(C)cc(C)cc3C)c2=O)cc1OC -13.4%
CCOC(=O)c1c(-c2ccc(C)cc2)csc1NC(=O)c1ccc(C(C)(C)C)cc1 -15.1%
CCc1ccc(NC(=O)CCS(=O)(=O)c2ccc3c(c2)oc(=O)n3C)cc1 -15.3% [at 11.5 µM, percent change from vehicle, -100% = no light]
COC(=O)c1ccc(OC)c(Cn2c(=O)n(-c3cccc(Cl)c3)c(=O)c3c2c2cc(C)ccc2n3C)c1 -19.6%
Cc1ccc(-n2c(SCc3nc(-c4ccccc4C)no3)nnc2-c2ccncc2)cc1C -20.6%
CC1=C(C(N)=O)C(c2ccc(C(C)C)cc2)n2nc(SCc3ccccc3F)nc2N1 (configuration not stated) -13.2%
Cc1cc(O)c(C)c(C)c1O -3.85%
CCn1cc2nc(SCc3cccc(C(F)(F)F)c3)n(CCc3ccccc3)c(=O)c2n1 1.05%
CCOc1ccc(NC(=O)Cn2cnc3nc4c(cc3c2=O)CCCC4)cc1 2.79%
COc1ccc(-c2cc(C)no2)cc1S(=O)(=O)Nc1cccc(C(F)(F)F)c1 -37.3%
Cc1c(CCNC(=O)c2ccc(C(F)(F)F)cc2)sc2nc(-c3ccc(F)cc3)nn12 -3.51%
